Binding signal data for 172 sequences are collected here from publication PMC6212790.

This is one part of the list. At the low end of the ranking the order means little.

This experiment addresses T1, GST-Rok-C97-191 (UniProt O34857).
T1 sequence: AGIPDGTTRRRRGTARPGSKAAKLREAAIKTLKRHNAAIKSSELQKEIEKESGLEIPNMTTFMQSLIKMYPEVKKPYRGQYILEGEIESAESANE
In words: protein binding microarray.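 Note: rank score from −0.5 (least bound) to 0.5 (best bound).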 The settings on record: Rok is a gene silencer of Bacillus subtilis; high values mean tight binding; most listed sequences are background and not binding sites; double strand, one strand shown.
The sequence ATTGGAGA displayed a binding signal of -0.0148 E-score.

Sequence CCTCATGA showed a binding signal of -0.212 E-score. The figure for ATCGCGGA is 0.0687 E-score; for ACACGAGG it is -0.119 E-score. The result for ATAGTATA reads 0.334 E-score; that for ACGACACC, -0.0346 E-score; that for AAAAGCAG, -0.00674 E-score. The result for AGTGAGCA reads -0.117 E-score; that for AACTGCCT, 0.121 E-score.

As for GTTGAGGA, the binding signal was 0.0201 E-score.

The sequence CCCTTTAC yielded a binding signal of -0.0671 E-score. The figure for AAATCTCC is 0.207 E-score. CAGCGGAG showed a binding signal of -0.344 E-score. The result for AGGACGTC reads -0.138 E-score; that for CACCATTC, -0.13 E-score. The figure for AGCGGCAA is -0.113 E-score; for GAAGTCCA it is -0.0459 E-score; for GAGACAAA it is -0.107 E-score. Turning to TCAATCGA, the binding signal was -0.0356 E-score. The result for GTAAAATA reads 0.306 E-score.

AGAAGCAG gave a binding signal of -0.0595 E-score. The result for GGCTAAAA reads 0.0638 E-score; that for TATGGAGA, 0.0429 E-score.

AAGAAGTA gave a binding signal of 0.168 E-score. The result for GCAACCTA reads 0.0995 E-score; that for AGTGCTAG, 0.0523 E-score. With ATTGCCAC, the binding signal is 0.0397 E-score. As for ATCAAGGA, the binding signal was -0.0747 E-score. With CGAACCCC, the binding signal was -0.186 E-score. The result for GATTGTGA reads 0.0505 E-score.

Sequence AGCAGGAG yielded a binding signal of -0.319 E-score. The result for GTCGGTTA reads 0.00256 E-score. As for ATATCCTC, the binding signal was 0.0405 E-score. The result for ATCGACCG reads 0.072 E-score; that for GTGGCAAC, -0.207 E-score. In the case of ACTAACCG, the binding signal was 0.0565 E-score. The result for ACGTGTAG reads -0.0418 E-score. The result for TAGCTGAA reads 0.172 E-score; that for ACGACGTG, 0.0128 E-score.

CAGATCTA: the binding signal worked out at 0.119 E-score. Sequence CAAGATAC returned a binding signal of 0.0729 E-score.

With ACTGACAA, the binding signal was 0.0467 E-score. In the case of TATGGGCA, the binding signal is -0.0382 E-score. The result for CCTGAACG reads -0.243 E-score.

In turn, TAAGGGAA returned a binding signal of 0.0242 E-score. CGGGAGGC returned a binding signal of -0.194 E-score.

Sequence CTAGTGTC gave a binding signal of -0.0331 E-score.

As to AACCACCG, the binding signal is -0.0914 E-score. As to CTGAAGGC, the binding signal was -0.274 E-score. As for CACCACGA, the binding signal was -0.232 E-score. Consider ACAAAATA, for which the binding signal stood at 0.267 E-score. Consider ATTGAAAT, for which the binding signal was found to be 0.181 E-score.

GCGTAAGC came in with a binding signal of -0.143 E-score.

CTCCCCCA showed a binding signal of -0.318 E-score. CAGGATAC: the binding signal was -0.0781 E-score. Regarding GGGCTAGA, the binding signal is -0.153 E-score.

On to CATGAAAA, for which the binding signal came to 0.0479 E-score. The result for GCGTATTA reads 0.122 E-score; that for CAATCTCC, -0.0128 E-score. GGTTAGCA registered a binding signal of 0.0837 E-score.

In turn, GCGTGAAC displayed a binding signal of -0.0676 E-score. The figure for ACAAATGT is 0.123 E-score.

As to AGCGGTAT, the binding signal turned out to be 0.237 E-score. AAATCGGC yielded a binding signal of -0.0381 E-score.

With ATCCACTA, the binding signal was found to be 0.0698 E-score. The figure for AGTGGATA is 0.0314 E-score; for CTCCTGGA it is 0.00559 E-score. On to ACTGGATC, for which the binding signal was -0.191 E-score.

For CCATATAC, the binding signal is 0.161 E-score. CAGTCGAG came in with a binding signal of -0.0692 E-score. Take AATTTGTA: the binding signal was determined as 0.346 E-score. The figure for ACGTATCA is 0.105 E-score; for CATCGGTA it is 0.173 E-score. On to GAACTCGC, for which the binding signal was -0.163 E-score. GCGTTCAC: the binding signal is -0.208 E-score. The figure for AGTTCTCC is -0.0101 E-score.

Regarding AAATCTGG, the binding signal was -0.188 E-score. The result for CTCAGGAG reads -0.192 E-score; that for GGGCCATA, 0.018 E-score; that for TGCAGCAA, -0.041 E-score. As to GCGCAGCC, the binding signal was -0.254 E-score. The figure for CTCTAGGC is -0.195 E-score; for AGAACAGG it is -0.145 E-score.

CGCAGCCG returned a binding signal of -0.258 E-score. For AGTGAACG, the binding signal worked out at 0.0155 E-score. The figure for GAGCAACC is -0.269 E-score; for CGGCTAGA it is -0.0456 E-score; for TACATTGA it is 0.175 E-score. CGGTTTCC had a binding signal of -0.231 E-score. Sequence ACGCACGG registered a binding signal of -0.107 E-score. The result for AACATATG reads 0.211 E-score; that for AAGGGATG, -0.139 E-score. The sequence CGTAAGAG registered a binding signal of 0.0647 E-score. With CCTTATCG, the binding signal was -0.0859 E-score. CGGTGTCA registered a binding signal of -0.209 E-score. The result for CGCGAGCA reads -0.0866 E-score. In turn, ACAAGGAA came in with a binding signal of -0.0104 E-score. The figure for TATCCCGA is 0.0408 E-score; for ACCCTCAG it is -0.181 E-score. Sequence CTGCAAAC displayed a binding signal of -0.272 E-score.

Consider GAAGGGAA, for which the binding signal is -0.124 E-score. AGTTCAGA showed a binding signal of -0.0377 E-score.

Consider CGAGGGAG, for which the binding signal is -0.272 E-score.

In the case of ACGTAGCT, the binding signal worked out at 0.18 E-score. In turn, TCGGATCA yielded a binding signal of 0.091 E-score. The result for GAATCTAC reads 0.423 E-score; that for AGCGTTCG, -0.232 E-score; that for AGCCTCGA, -0.196 E-score. The result for ATTTAAGC reads 0.0377 E-score; that for CGCGTCCG, -0.292 E-score; that for GCACATAA, 0.00596 E-score.

CAAATCCG gave a binding signal of 0.0185 E-score. The figure for CATCACAC is -0.085 E-score; for GTGGCCTA it is -0.0368 E-score; for ATTGCCAA it is 0.0228 E-score. ATAAGCCA: the binding signal was 0.0805 E-score.

CAGAAATA displayed a binding signal of 0.254 E-score. The figure for CATGTGCA is -0.0855 E-score; for GGTTTGAA it is -0.121 E-score. The result for TCACTGAA reads -0.0863 E-score; that for GGAGCCCA, -0.307 E-score. The result for AGTTACAG reads 0.193 E-score; that for ATCGTCAT, -0.0298 E-score; that for CGTCGAAC, -0.122 E-score.

With GCGGAACA, the binding signal was -0.0136 E-score. On to GCAGTACC, for which the binding signal is -0.183 E-score. On to GCACTAAC, for which the binding signal was -0.05 E-score. CACGAGGA: the binding signal is -0.341 E-score.

Sequence TAATGGTA registered a binding signal of 0.325 E-score. On to CGCTTACG, for which the binding signal is -0.032 E-score.

Consider TAACAGAA, for which the binding signal was determined as 0.153 E-score. The sequence AGTAGGAA displayed a binding signal of 0.186 E-score. Turning to CGTCCGGA, the binding signal is 0.00304 E-score. AGGTCAGG: the binding signal is -0.156 E-score. The figure for CACAGTAG is 0.0897 E-score; for GAAGCTGA it is 0.014 E-score; for AGAGGGTA it is -0.0234 E-score. The result for AATCGCCC reads -0.144 E-score; that for AACTGTGT, 0.0986 E-score.

On to AACGATCA, for which the binding signal was -0.0485 E-score.

The sequence CAAGTGCG returned a binding signal of 0.0974 E-score. The result for ACTGAACC reads 0.0652 E-score.

For the sequence AAGGGGAT, the binding signal is -0.304 E-score. CTTGCTGC: the binding signal was -0.151 E-score. On to AGAGATAT, for which the binding signal turned out to be 0.233 E-score. The result for CTTAAGAA reads 0.0573 E-score; that for CCTCCCAA, -0.192 E-score; that for TAAGCGGA, 0.00666 E-score.

The sequence CTGTTGCC yielded a binding signal of -0.201 E-score.

In turn, AATCTGTA came in with a binding signal of 0.291 E-score. The figure for ATATCCAG is -0.000629 E-score; for GGAAAACA it is -0.00212 E-score. In turn, ATTCTGTC had a binding signal of 0.0202 E-score. Sequence AAGCTTTA gave a binding signal of 0.146 E-score. For the sequence CGGCTTTA, the binding signal was -0.113 E-score.

On to CGTGTAAC, for which the binding signal is 0.0552 E-score. The figure for ACGCGGCG is -0.268 E-score. The result for ATCGGTGC reads -0.157 E-score; that for GAATGTGA, 0.0339 E-score; that for CGGAAAGA, -0.135 E-score. The sequence AGGGAGGA had a binding signal of -0.0242 E-score. In turn, GTCGAAAC gave a binding signal of -0.125 E-score. Sequence CGGTACGC yielded a binding signal of -0.0834 E-score.

The sequence GATATACA displayed a binding signal of 0.175 E-score.

As for AGGTGCAG, the binding signal was -0.15 E-score. Turning to GAGGATTA, the binding signal is 0.0606 E-score. CAAGCGTG displayed a binding signal of -0.0896 E-score.

For the sequence AACTTCCA, the binding signal is 0.0107 E-score.

ATGAGTGG yielded a binding signal of -0.194 E-score.

For CGGTTTAG, the binding signal is -0.129 E-score.

Sequence CCACTCGG displayed a binding signal of -0.094 E-score. CAAGGATA showed a binding signal of 0.00112 E-score.
